# Measured values as given in PubChem BioAssay (Tox21).
# Values joined by “and” are separate entries in the source; they are usually repeats but may differ in a detail not shown here. Identical values can stand only once. This list was built around the results that the source calls inconclusive (neither active nor inactive); the mix of calls is not that of the screen. Potencies beside an inconclusive call are fits to weak or partial responses and may not hold up. The source holds several records for some structures; these can differ, active in one and inactive in another. Active and inactive are the calls of the source. Unless noted, calls follow the shape of the dose curve; as a rule, active = well fitted curve in the direction sought with a large enough effect in the repeat runs; inconclusive = weak or mixed curves; inactive = no such curve, though single readings can be large; an effect the other way counts as inactive or inconclusive.
# Experiments:
# [1] = qHTS assay to identify small molecule agonists of the endoplasmic reticulum stress response signaling pathway - cell viability counter screen (AID 1159517; calls by dose curve; also: nearly all actives have a fitted effect of over 50% in size)
# Summary of the method: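 ESRE-bla HeLa cells (1,500/well) were plated overnight at 37 C and exposed to compounds for 5 hr. After the 2 hr beta-lactamase substrate read, CellTiter-Glo went into the same wells, and luminescence was read after 30 min at room temperature.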
# [2] = qHTS assay to identify small molecule agonists of the AP-1 signaling pathway - cell viability counter screen (AID 1159525; calls by dose curve; also: nearly all actives have a fitted effect of over 55% in size)
# Summary of the method: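 Intracellular ATP by Cell Titer Glo luminescence (30 min, RT) in the same ME-180 AP-1-bla wells after the 5 h compound exposure at 37 °C. Normalised to tetra n-octyl ammonium bromide and DMSO controls.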
# [3] = qHTS assay to identify small molecule agonists of the AP-1 signaling pathway (AID 1159526; calls by dose curve; as to activation: % is scaled to controls: 0 for no effect and ±100 for the full control effect); settings: ME-180 (cervical carcinoma) AP-1-bla reporter, beta-lactamase FRET ratio, 5 h; activation: at 76.8 µM (top of the series) unless noted
# [4] = target: Retinoic acid receptor RXR-alpha (Homo sapiens) (UniProt P19793); assay: qHTS assay to identify small molecule agonists of the RXR signaling pathway (AID 1159527; calls by dose curve; also: nearly all actives have a fitted effect of over 35% in size; as to activation: % is scaled to controls: 0 for no effect and ±100 for the full control effect); settings: HEK293T RXRa-UAS-bla, beta-lactamase ratio, 16 h
# Chain of UniProt P19793 (P19793 whole entry, looked up): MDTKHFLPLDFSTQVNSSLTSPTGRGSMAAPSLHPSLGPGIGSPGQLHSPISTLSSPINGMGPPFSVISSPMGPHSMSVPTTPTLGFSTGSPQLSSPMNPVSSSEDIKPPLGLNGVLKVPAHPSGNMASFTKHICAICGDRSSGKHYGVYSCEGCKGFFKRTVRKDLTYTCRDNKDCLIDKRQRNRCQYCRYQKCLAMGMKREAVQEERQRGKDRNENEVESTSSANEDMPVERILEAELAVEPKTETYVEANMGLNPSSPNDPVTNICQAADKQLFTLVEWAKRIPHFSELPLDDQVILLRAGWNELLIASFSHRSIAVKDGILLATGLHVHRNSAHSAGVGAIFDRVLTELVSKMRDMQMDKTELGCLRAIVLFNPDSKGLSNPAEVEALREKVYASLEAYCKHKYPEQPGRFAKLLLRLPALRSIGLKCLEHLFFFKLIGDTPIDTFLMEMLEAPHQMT
# Summary of the method: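 Agonist mode; 9-cis retinoic acid positive control. HEK 293T UAS-bla reporter cells, 2% charcoal-stripped FBS, 16 hr compound exposure at 37 C/5% CO2. LiveBLAzer B/G FRET substrate 2 hr RT; ex 405, em 460/530 nm.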
# [5] = qHTS assay to identify small molecule agonists of the RXR signaling pathway - cell viability counter screen (AID 1159529); also: nearly all actives have a fitted effect of over 50% in size
# Summary of the method: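 Luminescence from CellTiter-Glo (30 min, RT) measured viability in the same wells as the beta-lactamase reporter readout. Cells: GeneBLAzer RXR-alpha HEK 293T, 2% charcoal-stripped FBS. Compound exposure 16 hr, 37 C.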
# [6] = qHTS assay to identify small molecule antagonists of the retinoid acid receptor (RAR) signaling pathway - cell viability counter screen (AID 1159551); also: nearly all actives have a fitted effect of over 35% in size
# Summary of the method: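 Cells (C3RL4) are plated, incubated overnight, dosed with compound in DMSO, then given retinol at 1 uM final. After 6 h at 37 C, CellTiter-Glo is added and luminescence read following 30 min at room temperature.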
# [7] = qHTS assay to identify small molecule agonists of the retinoic acid receptor (RAR) signaling pathway (AID 1159553); settings: C3RL4 RARE luciferase reporter, agonist, 6 h; activation: at 73.3 µM (top of the series) unless noted; as to activation: % is scaled to controls: 0 for no effect and ±100 for the full control effect
# Summary of the method: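 Seed C3RL4 reporter cells at 1,000 per well and incubate overnight at 37 C. Add compounds in DMSO, incubate 6 hr. Add luciferase reagent, wait 30 min at room temperature, read luminescence.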
# [8] = qHTS assay to identify small molecule antagonists of the estrogen related receptor (ERR) signaling pathway from Tox21 library - cell viability counter screen (AID 1224834); also: nearly all actives have a fitted effect of over 30% in size
# Summary of the method: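 ERR cells, 2,000/well; 6 h settle at 37 C/5% CO2; pin-tool compound transfer in DMSO; 17.5 h at 37 C; CellTiter-Fluor, 30 min; fluorescence intensity.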
# [9] = qHTS assay to identify small molecule agonists of the constitutive androstane receptor (CAR) signaling pathway - cell viability counter screen (AID 1224836); also: nearly all actives have a fitted effect of over 45% in size
# Summary of the method: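 Viability read-out: CellTiter-Fluor fluorescence after 23 h compound exposure at 37 C/5% CO2 in double-stable HepG2-CYP2B6-hCAR cells, with PK11195 present at 0.75 uM final; compounds tested in 15-point titration.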
# [10] = target: Luciferin 4-monooxygenase (Photinus pyralis) (UniProt P08659); assay: qHTS assay to identify small molecule inhibitors of firefly luciferase (AID 1224835); also: nearly all actives have a fitted effect of over 25% in size
# Chain of UniProt P08659 (P08659 whole entry, looked up): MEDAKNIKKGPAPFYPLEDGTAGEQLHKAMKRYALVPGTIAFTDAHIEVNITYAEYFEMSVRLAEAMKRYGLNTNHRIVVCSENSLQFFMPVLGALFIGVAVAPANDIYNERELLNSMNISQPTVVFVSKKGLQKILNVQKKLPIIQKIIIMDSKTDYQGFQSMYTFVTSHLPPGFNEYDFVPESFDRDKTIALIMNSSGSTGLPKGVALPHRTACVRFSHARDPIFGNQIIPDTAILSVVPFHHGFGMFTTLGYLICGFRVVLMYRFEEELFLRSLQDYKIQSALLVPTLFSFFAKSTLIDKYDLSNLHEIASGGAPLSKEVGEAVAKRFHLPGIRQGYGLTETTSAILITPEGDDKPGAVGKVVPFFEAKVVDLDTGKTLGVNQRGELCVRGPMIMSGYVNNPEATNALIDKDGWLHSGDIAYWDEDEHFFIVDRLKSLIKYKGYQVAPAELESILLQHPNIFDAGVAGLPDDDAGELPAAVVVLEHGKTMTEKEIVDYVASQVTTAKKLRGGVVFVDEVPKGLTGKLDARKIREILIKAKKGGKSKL
# Summary of the method: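 Inhibition of purified Photinus luciferase is measured by luminescence. Substrate levels (D-luciferin, ATP) sit at their KM values. Each compound is tested in a concentration series.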
# [11] = qHTS assay to identify small molecule antagonists of the constitutive androstane receptor (CAR) signaling pathway - cell viability counter screen (AID 1224837); also: nearly all actives have a fitted effect of over 45% in size
# Summary of the method: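 Viability was measured with CellTiter-Fluor in a HepG2 line carrying stably transfected hCAR and a CYP2B6-2.2kb construct. Cells were exposed for 23 hr at 37 C to 15 compound concentrations with 50 nM CITCO as agonist.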
# [12] = qHTS assay to identify small molecule antagonists of the retinoic acid receptor (RAR) signaling pathway (AID 1159552; also: nearly all actives have a fitted effect of over 50% in size)
# Summary of the method: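 Luminescence from a RARE luciferase reporter in C3RL4 cells served as read-out. Cells received compounds together with 1 uM final retinol and incubated 6 hr at 37 C before detection reagent was added for 30 min at room temperature.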
# [13] = activation: at 76.8 µM (top of the series) unless noted
# Potency is read from the fitted curve at half-maximal effect; tags tell the direction and shape of the fitted curve or compound fluorescence and quenching.
smiles,measurement,setting,value
CCC(=O)O[C@H]1CC[C@H]2[C@@H]3CCC4=CC(=O)CC[C@]4(C)[C@H]3CC[C@]12C,Potency,[1],active: 54.9 µM and active: 21.3 µM
same,Potency,[2],"inconclusive: 54.9 µM [cytotoxic, single point]"
same,Potency,[3],inconclusive: 54.9 µM
same,Potency,[4]; [13],"inconclusive: 21.9 µM [inhibitor] and inconclusive: 21.3 µM [inhibitor, partial curve]"
same,Potency,[5],"active: 49 µM and inconclusive: 16.9 µM [cytotoxic, partial curve]"
same,Potency,[6],"inconclusive: 61.1 µM [cytotoxic, single point]"
same,Potency,[7],inconclusive: 61.1 µM [inhibitor] and inactive
same,Potency,[8],"inconclusive: 54.5 µM [cytotoxic, partial curve]"
CC[C@H](C)[C@H]1O[C@]2(C=C[C@@H]1C)C[C@@H]1C[C@@H](C/C=C(\C)[C@@H](O[C@H]3C[C@H](OC)[C@@H](O[C@H]4C[C@H](OC)[C@@H](O)[C@H](C)O4)[C@H](C)O3)[C@@H](C)/C=C/C=C3\CO[C@@H]4[C@H](O)C(C)=C[C@@H](C(=O)O1)[C@]34O)O2,Potency,[1],inconclusive: 28.9 µM [cytotoxic]
same,Potency,[2],active: 23 µM
same,Potency,[3],inconclusive: 25.8 µM
same,Potency,[4]; [13],"inconclusive: 3.64 µM [inhibitor, full curve]"
same,Potency,[6],"inconclusive: 40.5 µM [cytotoxic, single point]"
same,Potency,[7],inconclusive: 36.1 µM [inhibitor]
same,Potency,[9],active: 32.2 µM
CCC[CH2][Sn]([Cl])([Cl])[CH2]CCC,Potency,[1],active: 125 nM and active: 38.9 nM
same,Potency,[2],"inconclusive: 5.57 µM [cytotoxic, single point] and inconclusive: 5.49 µM [cytotoxic, single point]"
same,Potency,[4]; [13],"inconclusive: 249 nM [rising, full curve] and inconclusive: 174 nM [rising, full curve]"
same,Potency,[5],active: 1.76 µM and active: 3.09 µM
same,Potency,[6],active: 13.9 µM and active: 27.3 µM
same,Potency,[7],"inconclusive: 310 nM [inhibitor, full curve] and inconclusive: 96.9 nM [inhibitor, full curve]"
same,Potency,[10],"inconclusive: 71.9 µM [inhibitor, single point] and inconclusive: 35.6 µM [inhibitor, partial curve]"
same,Potency,[9],inconclusive: 0.864 µM [cytotoxic]
CCCCOCN(C(=O)CCl)c1c(CC)cccc1CC,Potency,[1],inactive
same,Potency,[3],"inconclusive: 61.6 µM [falling, single point]"
same,Potency,[4]; [13],"inconclusive: 49 µM [rising, partial curve, poor fit]"
same,Potency,[5],"inconclusive: 54.9 µM [cytotoxic, single point]"
same,Potency,[8],"inconclusive: 77 µM [cytotoxic, single point]"
CN1C(=O)[C@@H](NC(=O)c2cc3ccccc3[nH]2)N=C(c2ccccc2)c2ccccc21,Potency,[1],inactive
same,Potency,[3],inconclusive: 23.9 µM
same,Potency,[7],inactive
same,Potency,[8],"inconclusive: 15 µM [cytotoxic, full curve, poor fit]"
CCCCCCCCCCCCCCn1cc[n+](C)c1,Potency,[1],active: 6.18 µM and active: 19.3 µM
same,Potency,[2],active: 49.1 µM and active: 48.5 µM
same,Potency,[3],"inconclusive: 61.8 µM [cytotoxic, single point] and inconclusive: 54.4 µM [cytotoxic] and inconclusive: 61.6 µM"
same,Potency,[4]; [13],"inconclusive: 31 µM [cytotoxic, partial curve, poor fit] and inconclusive: 38.5 µM [cytotoxic, partial curve, poor fit]"
same,Potency,[5],"active: 19.5 µM and inconclusive: 17.2 µM [cytotoxic, partial curve, poor fit] and inconclusive: 61.6 µM [cytotoxic, single point]"
same,Potency,[6],"active: 54.6 µM and active: 60.4 µM and inconclusive: 68.5 µM [cytotoxic, single point]"
same,Potency,[7],"inconclusive: 27.4 µM [inhibitor, partial curve] and inconclusive: 27 µM [inhibitor]"
same,Potency,[8],"active: 27.4 µM and active: 30.3 µM and inconclusive: 68.5 µM [cytotoxic, single point]"
same,Potency,[10],"inconclusive: 89.3 µM [inhibitor, single point]"
same,Potency,[9],"inconclusive: 27 µM [cytotoxic, partial curve]"
CC(=O)c1cc(C(C)(C)C)cc2c1CCC2(C)C,Potency,[1],"inconclusive: 27.5 µM [cytotoxic, partial curve, poor fit]"
same,Potency,[3],"inconclusive: 54.9 µM [falling, partial curve, poor fit]"
same,Potency,[4]; [13],inconclusive: 8.71 µM [activator]
C[C@H]1O[C@@H](O[C@H]2[C@@H](O)C[C@H](O[C@H]3[C@@H](O)C[C@H](O[C@H]4CC[C@@]5(C)[C@H](CC[C@@H]6[C@@H]5CC[C@]5(C)[C@@H](C7=CC(=O)OC7)CC[C@]65O)C4)O[C@@H]3C)O[C@@H]2C)C[C@H](O)[C@@H]1O,Potency,[1],"inconclusive: 39.2 nM [cytotoxic, full curve] and inconclusive: 169 nM [cytotoxic, full curve]"
same,Potency,[2],"inconclusive: 311 nM [cytotoxic, partial curve] and inconclusive: 21.3 nM [cytotoxic, partial curve, poor fit]"
same,Potency,[3],"inconclusive: 156 nM [activator, full curve] and inconclusive: 301 nM [activator, full curve, poor fit]"
same,Potency,[5],"active: 62.1 nM and inconclusive: 107 nM [cytotoxic, full curve]"
same,Potency,[9],"inconclusive: 0.422 µM [cytotoxic, full curve]"
same,Potency,[11],"inconclusive: 109 nM [cytotoxic, full curve] and inconclusive: 298 nM [cytotoxic, full curve]"
O=C/C(Cl)=C(/Cl)C(=O)O,Potency,[1],"inconclusive: 61.6 µM [cytotoxic, single point] and inconclusive: 61.7 µM [cytotoxic, single point]"
same,Potency,[2],"inconclusive: 38.9 µM [rising, partial curve] and inconclusive: 49 µM [rising, partial curve]"
same,Potency,[4]; [13],inconclusive: 61.7 µM [inhibitor]
same,activation,[4]; [13],inconclusive: -33.5%
same,Potency,[6],"inconclusive: 77 µM [rising, partial curve, poor fit]"
same,Potency,[12],"inconclusive: 68.5 µM [inhibitor, single point] and inconclusive: 68.6 µM [inhibitor, single point]"
same,Potency,[7],inconclusive: 76.9 µM [inhibitor] and inconclusive: 77 µM [inhibitor]
same,Potency,[8],"inconclusive: 76.9 µM [cytotoxic, single point]"
same,Potency,[10],inactive
Cc1cc(SCc2sc(-c3ccc(C(F)(F)F)c(F)c3)nc2C)ccc1OCC(=O)O,Potency,[1],"inconclusive: 61.6 µM [cytotoxic, partial curve, poor fit]"
same,Potency,[3],"inconclusive: 11 µM [activator, partial curve]"
same,Potency,[4]; [13],inconclusive: 15.5 µM
same,Potency,[5],active: 19.5 µM
same,Potency,[6],"inconclusive: 54.5 µM [cytotoxic, partial curve, poor fit]"
same,Potency,[8],"inconclusive: 34.4 µM [cytotoxic, partial curve]"
O=[N+]([O-])C(Br)(CO)CO,Potency,[1],"inconclusive: 12.3 µM [cytotoxic, single point]"
same,activation,[3],inconclusive: -15.4%
same,Potency,[4]; [13],"inconclusive: 54.9 µM [rising, partial curve]"
same,Potency,[5],"inconclusive: 15.5 µM [cytotoxic, partial curve, poor fit]"
same,Potency,[6],inconclusive: 68.6 µM [cytotoxic]
same,Potency,[12],"inconclusive: 68.6 µM [inhibitor, single point]"
same,Potency,[7],inconclusive: 68.6 µM [inhibitor]
same,Potency,[10],"inconclusive: 35.6 µM [inhibitor, partial curve]"
same,Potency,[9],inactive
same,Potency,[11],"inconclusive: 68.6 µM [cytotoxic, partial curve, poor fit]"
COP(=O)(OC)C(O)C(Cl)(Cl)Cl (stereo not drawn),Potency,[1],"inactive and inconclusive: 776 nM [cytotoxic, single point] and inconclusive: 95.2 nM [cytotoxic, single point]"
same,Potency,[3],inactive
same,activation,[4]; [13],inconclusive: -6.05% [at 35.3 µM]
same,activation,[4]; at 76.8 µM (top of the series),inactive: 3.31% and inactive: -3.62%
CC(C)C1CCC(Cc2ccc(Cl)cc2)C1(O)Cn1cncn1 (stereo not drawn),Potency,[1],"inconclusive: 54.4 µM [cytotoxic, single point]"
same,Potency,[2],active: 48.5 µM
same,Potency,[3],"inconclusive: 48.5 µM [falling, partial curve]"
same,Potency,[4]; [13],inconclusive: 17.2 µM [inhibitor]
same,Potency,[6],active: 60.5 µM
same,Potency,[12],active: 42.8 µM
same,Potency,[7],inconclusive: 67.9 µM [inhibitor]
same,Potency,[9],"inconclusive: 67.9 µM [cytotoxic, single point]"
same,Potency,[11],"inconclusive: 60.5 µM [cytotoxic, partial curve]"
Nc1ccccc1C(=O)OCCc1ccccc1,Potency,[1],"inconclusive: 55.2 µM [cytotoxic, partial curve, poor fit]"
same,Potency,[2],inconclusive: 49.2 µM [cytotoxic]
same,Potency,[3],"inconclusive: 39.1 µM [falling, partial curve]"
same,Potency,[4]; [13],"inconclusive: 7.79 µM [inhibitor, full curve] and inconclusive: 6.92 µM [inhibitor, full curve]"
same,Potency,[5],inconclusive: 22 µM [cytotoxic]
same,Potency,[6],"inconclusive: 48.8 µM [cytotoxic, partial curve, poor fit] and inconclusive: 54.5 µM [cytotoxic, partial curve, poor fit]"
same,Potency,[7],active: 173 nM and active: 122 nM
same,Potency,[8],"inconclusive: 61.4 µM [cytotoxic] and inconclusive: 48.6 µM [cytotoxic, partial curve]"
same,Potency,[10],active: 897 nM and active: 796 nM
